Test results: the supplement of paper PMC7125110
± gives the standard error. This sample is rich in variants without activity.

B1: glmS ribozyme (parent)
chain: AUAAAAGCGCCAGAACUACAGAAAUGUAGUUGACGAGGAGGAGGUUUAUCGAAUUUUCGGCGGAUGCCUCCAAA

Experiments:
Conditions in all cases: with glucosamine-6-phosphate
glucosamine-6-phosphate [1] = variants of: B1; test: self-cleavage kobs at 40 uM GlcN6P; higher = faster cleavage; RNA array
How it was run: (§1)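 The measurements used barcoded ribozyme variants on sequenced MiSeq chips, transcribed in situ by E. coli RNA polymerase and tracked at 37 °C with a hybridised Cy3 probe. Glucosamine-6-phosphate, 40 μM to 10 mM in HEPES/KCl/Mg(OAc)2 buffer, was flowed in while tiles were imaged over ~14 h. Baseline-normalised signals, also normalised to non-cleaving reference variants, gave per-tile medians that were fit to one- or two-exponential decays for kobs. kcat and KM resulted from weighted Michaelis–Menten fits across concentrations.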

glucosamine-6-phosphate [2] = variants of: B1; test: self-cleavage kobs at 10000 uM GlcN6P; higher = faster cleavage; RNA array
How it was run: as §1

glucosamine-6-phosphate [3] = variants of: B1; test: self-cleavage kobs at 640 uM GlcN6P; higher = faster cleavage; RNA array
How it was run: as §1

glucosamine-6-phosphate [4] = variants of: B1; test: self-cleavage kobs at 160 uM GlcN6P; higher = faster cleavage; RNA array
How it was run: as §1

glucosamine-6-phosphate [5] = variants of: B1; test: self-cleavage kobs at 2500 uM GlcN6P; higher = faster cleavage; RNA array
How it was run: as §1

| Variant | self-cleavage kobs at 40 uM GlcN6P (glucosamine-6-phosphate [1]) [s⁻¹] | self-cleavage kobs at 10000 uM GlcN6P (glucosamine-6-phosphate [2]) [s⁻¹] | self-cleavage kobs at 640 uM GlcN6P (glucosamine-6-phosphate [3]) [s⁻¹] | self-cleavage kobs at 160 uM GlcN6P (glucosamine-6-phosphate [4]) [s⁻¹] | self-cleavage kobs at 2500 uM GlcN6P (glucosamine-6-phosphate [5]) [s⁻¹] |
| --- | --- | --- | --- | --- | --- |
| A14U G38U G63U | < 1e-05 | – | – | – | – |
| A14C U55G | 9.05e-05 ± 2.8e-05 | 0.00435 ± 0.0012 | – | – | – |
| C16U U30A A48U A64C | < 1e-05 | < 1e-05 | – | – | – |
| A36G G38A G44C | < 1e-05 | < 1e-05 | – | – | – |
| A33G U65C | < 1e-05 | < 1e-05 | < 1e-05 | < 1e-05 | – |
| U30C U57G | < 1e-05 | – | – | – | – |
| A33G A39U G41C | < 1e-05 | < 1e-05 | – | – | – |
| G29A G35C A64G | < 1e-05 | < 1e-05 | – | – | – |
| A36U A39U U55C | < 1e-05 | – | < 1e-05 | – | – |
| C16G A36U U45G C67A | < 1e-05 | – | – | – | – |
| A33U G43C U56A G59C | < 1e-05 | – | – | – | – |
| A33G A36U G60C | < 1e-05 | < 1e-05 | – | – | – |
| G35U C58A | < 1e-05 | < 1e-05 | < 1e-05 | < 1e-05 | < 1e-05 |
| A33C A42C | < 1e-05 | < 1e-05 | < 1e-05 | < 1e-05 | – |
| A14U A52C C71G | < 1e-05 | – | < 1e-05 | – | – |
| C34A U56G G59A | < 1e-05 | < 1e-05 | – | – | – |
| G29C A42U | < 1e-05 | – | < 1e-05 | < 1e-05 | – |
| A14U G37A U65G | < 1e-05 | – | – | – | – |
| G37A G38C C67U | < 1e-05 | – | – | – | – |
| A33C G38A | < 1e-05 | – | < 1e-05 | < 1e-05 | – |
| A36C G43A | < 1e-05 | < 1e-05 | < 1e-05 | < 1e-05 | – |
| U31A U55G | 0.000331 ± 5.6e-05 | 0.0123 ± 0.0044 | 0.0036 ± 0.00064 | 0.000659 ± 9.3e-05 | 0.00546 ± 0.0012 |
| C34A G37A | < 1e-05 | < 1e-05 | – | – | – |
| U30G C34U | < 1e-05 | – | < 1e-05 | < 1e-05 | < 1e-05 |
| A15U A39C | 3.4e-05 ± 6.3e-06 | 0.00102 ± 7.3e-05 | 0.000287 ± 3.8e-05 | – | 0.000499 ± 5.7e-05 |
